# Measurements reported in PubChem BioAssay AID504832 (National Center for Advancing Translational Sciences (NCATS), 2011).
# Values joined by “and” are separate entries in the source; they are usually repeats but may differ in a detail not shown here. Identical values can stand only once. Out of some 310,000 compounds screened, about 18,000 (5.8%) were called active. The inconclusive results got no clear call from the source; some entries with a clear call stand among them for comparison. The call rests on the fitted dose curve; in most records, active means well fitted inhibition curve with a large enough effect; inconclusive means small, poorly fitted or top-dose-only effect, or another doubt; inactive means no such curve, though single readings can be large or run the other way. Potencies of inconclusive entries are doubtful fits and often do not repeat.
# Assay: Primary qHTS for delayed death inhibitors of the malarial parasite plastid, 48 hour incubation
# Conditions: P. falciparum luciferase growth in erythrocytes; series mostly up to 28.7 µM
# Procedure, shortened: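 Here the parasites carry a stable luciferase gene and grow inside erythrocytes in Albumax-based RPMI medium with compound for one erythrocytic cycle. Activity is scored as loss of luminescent signal.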
# Potency means the concentration at half of the fitted maximal effect; tags describe the fitted curve by direction and shape.
row,Structure (SMILES),Potency
1,CN1CCCC(CN2c3ccccc3Sc3ccccc32)C1 (stereo not drawn),"inconclusive: 19 µM [inhibitor, single point] and inconclusive: 7.38 µM [inhibitor, single point]"
2,Cc1ccc(NC(=O)CN(C)CC(=O)Nc2ccccc2-c2ccccc2)cc1,"inconclusive: 11.7 µM [inhibitor, single point]"
3,COc1ccc(N=c2cc(-c3ccc(O)cc3)oc3ccccc23)cc1,active: 3.29 µM
4,Cc1c(Cl)cnc(NC(=O)COC(=O)c2ccncc2)c1Cl,"inconclusive: 11.7 µM [inhibitor, single point]"
5,CCOC(=O)C1C(=O)C=C(c2ccc(C)cc2)CC1c1ccco1 (stereo not drawn),"inconclusive: 18.5 µM [inhibitor, partial curve, poor fit]"
6,Cc1ccc(C)c(N2CCN(C(c3ccc(N(C)C)cc3)c3nnnn3C(C)(C)C)CC2)c1 (stereo not drawn),"inconclusive: 4.15 µM [inhibitor, single point]"
7,Cc1ccc(/C=C(\NC(=O)c2ccccc2)C(=O)NC2CCN(Cc3ccccc3)CC2)o1,"inconclusive: 10.4 µM [inhibitor, single point]"
8,CCCn1nnnc1SCC(=O)N1C(C)CCCC1C (stereo not drawn),inactive
9,COc1cc(O)ccc1C(=O)CCc1ccc(O)cc1,"inconclusive: 18.5 µM [inhibitor, single point]"
10,COc1ccc(C(=O)/C=C/Nc2c(C)n(C)n(-c3ccccc3)c2=O)cc1OC,"inconclusive: 11.7 µM [inhibitor, single point]"
11,CCOC(=O)c1[nH]c2ccc(OC)cc2c1NC(=O)CN1CCc2ccccc2C1,"inconclusive: 18.5 µM [inhibitor, single point]"
12,CC(C)(C)N1C(=O)[C@H]2[C@@H](c3ccc(Br)cc3)N3C(=O)N(c4cccc(Br)c4)C(=O)[C@@]3(Cc3ccccc3)[C@H]2C1=O,"inconclusive: 2.33 µM [inhibitor, full curve]"
13,CSc1cccc(NC(=O)Nc2ccc(Cl)cc2)c1,"inconclusive: 18.5 µM [inhibitor, single point]"
14,CC1CCCCN1S(=O)(=O)c1ccc2c(c1)CCN2C(=O)C1CCC1 (stereo not drawn),"inconclusive: 13.1 µM [inhibitor, single point]"
15,CCN(CCCn1c(=S)[nH]c2ncccc2c1=O)c1ccccc1,"inconclusive: 0.0657 µM [inhibitor, full curve, poor fit]"
16,CCOC(=O)CNc1nc(C#N)nc(N2CCOCC2)n1,"inconclusive: 10.4 µM [inhibitor, partial curve, poor fit]"
17,O=C(CN1CCC(N2CCCCC2)CC1)N1CCOCC1,inactive
18,O=C(/C=C/c1ccc(OCCCF)cc1)NCc1cccc(Cl)c1,"inconclusive: 13.1 µM [inhibitor, partial curve, poor fit]"
19,C/C(CC(=O)Nc1ccccn1)=N\NC(=O)c1ccncc1,"inconclusive: 3.29 µM [inhibitor, partial curve, poor fit]"
20,O=C(CSc1ccc(-c2ccccn2)nn1)Nc1ccc(F)cc1F,inactive
21,CN(C)S(=O)(=O)c1cccc(C(=O)NCCNC(=O)c2cccc(S(=O)(=O)N(C)C)c2)c1,inactive
22,Cc1cccc(C(=O)NCCN2CCOCC2)c1[N+](=O)[O-],inactive
23,CC1=C[C@@H](O)CC(C)(C)[C@@H]1/C=C/C(C)=C/C=C/C(C)=C/C=C/C=C(C)/C=C/C=C(C)/C=C/C1=C(C)C[C@H](O)CC1(C)C,"inconclusive: 16.9 µM [inhibitor, single point]"

row,Structure (SMILES),Potency
1,O=C(NCCN1CCN(Cc2ccccc2)CC1)Nc1cc(Cl)cc(Cl)c1,"inconclusive: 18.5 µM [inhibitor, single point]"
2,COc1cccc(/C=N/Nc2ccc(S(=O)(=O)O)cc2)c1O,inactive
3,CC(C)CC1Nc2ncnc(N3CCN(c4ccccc4)CC3)c2N(Cc2ccc(Cl)cc2)C1=O (stereo not drawn),active: 9.28 µM
4,COc1ccc(S(N)(=O)=O)cc1C(=O)OCCCC(=O)c1ccccc1,"inconclusive: 11.7 µM [inhibitor, partial curve]"
5,COc1ccc(S(=O)(=O)N2CCC(C(=O)Nc3cccc(C(C)=O)c3)CC2)cc1,active: 11.7 µM
6,OC(COc1ccc(Cl)cc1)CN1C2=NCCCN2c2ccccc21 (stereo not drawn),active: 5.22 µM
7,Cc1ccc(-c2nnn(CC(=O)N(CC3CCCO3)C(C(=O)NC(C)(C)C)c3ccc(F)cc3)n2)o1 (stereo not drawn),active: 10.4 µM
8,CCc1ccc(N2CC(C(=O)Nc3ccc(S(=O)(=O)NCC4CCCO4)cc3)CC2=O)cc1 (stereo not drawn),inactive
9,COc1ccccc1CN1CC(C(=O)N(Cc2cnn(C)c2)C(C)C)CCC1=O (stereo not drawn),inactive
10,O=C(Oc1ccc([N+](=O)[O-])cc1)c1cc(-c2ccccc2)nc2ccccc12,inactive
11,COc1cc(CNc2ncnc3c2[nH]c2ccc(C)cc23)cc(OC)c1,"inconclusive: 1.47 µM [inhibitor, full curve]"
12,O=C(CSc1nc2ccccc2nc1SCC(=O)N1CCOCC1)N1CCOCC1,"inconclusive: 5.86 µM [inhibitor, partial curve, poor fit]"
13,O=C(c1cc(-c2ccco2)nc2ccccc12)N1CCN(c2ccc(F)cc2)CC1,"inconclusive: 10.4 µM [inhibitor, partial curve, poor fit]"
14,Cc1oc(C(C)(C)C)cc1C(=O)N1CCN(c2ncccc2C(F)(F)F)CC1,"inconclusive: 18.5 µM [inhibitor, single point]"
15,O=C1C=C(N2CCOCC2)C2(CCCCC2)O1,"inconclusive: 18.5 µM [inhibitor, single point]"
16,c1ccc2c(c1)CCN(c1nc(CN3CCOCC3)nc3sc4c(c13)CCCC4)C2,active: 14.7 µM
17,CCCNC(=O)Cn1cnc2sc(C(=O)N3CCN(CCC)CC3)c(C)c2c1=O,inactive
18,COc1cc([N+](=O)[O-])c2ncsc2c1,inactive
19,CCOc1ccccc1N1CCN(C(=O)c2cc(-c3cc(OC)ccc3OC)nc3ccccc23)CC1,"inconclusive: 5.22 µM [inhibitor, partial curve]"
20,COc1ccc(C2CC(=O)c3c(C)nc(N4CCN(Cc5ccccc5)CC4)nc3C2)cc1OC (stereo not drawn),active: 8.28 µM
21,Cc1cc(Cl)n2c(nc3cc(F)c(F)cc32)c1C#N,"inconclusive: 0.0033 µM [inhibitor, full curve, poor fit]"
22,Cc1csc(CNc2ncnc3ccc(-c4cccnc4)cc23)c1,"inconclusive: 10.4 µM [inhibitor, single point]"
23,O=C(CCn1cccn1)N1CCCC(N2CCN(c3cccc(Cl)c3)CC2)C1 (stereo not drawn),inactive

row,Structure (SMILES),Potency
1,Cc1ccc(Nc2cc(C)nn2-c2nc(C)cc(C)n2)cc1,active: 3.7 µM
2,Cc1ccc(C(=O)CN2C(=O)NC3(CCc4ccccc43)C2=O)s1 (stereo not drawn),"inconclusive: 18.5 µM [inhibitor, single point]"
3,CCOc1cc(CNc2ccccc2)cc(Br)c1OCC(=O)NC(C)(C)C,"inconclusive: 10.4 µM [inhibitor, partial curve, poor fit]"
4,COC(=O)C1=C(c2cccc(OCc3ccccc3)c2)C[C@@H]2CC[C@H]1N2C(=O)NCc1ccc(F)cc1,active: 11.7 µM
5,NC(=S)N=Nc1c(O)[nH]c2c(Br)cc(Br)cc12,"inconclusive: 13.1 µM [inhibitor, partial curve, poor fit]"
6,Nc1nc(O)c(N=Nc2ccc(S(N)(=O)=O)cc2)c(=O)[nH]1,inactive
7,O=c1[nH]c(C2CCCN(S(=O)(=O)c3ccc(F)cc3)C2)nc2c1nnn2Cc1ccc(F)cc1 (stereo not drawn),"inconclusive: 9.28 µM [inhibitor, partial curve, poor fit]"
8,COc1ccc(S(=O)(=O)N2CCC(C(=O)NCCc3c[nH]c4ccccc34)CC2)cc1,"inconclusive: 10.4 µM [inhibitor, partial curve, poor fit]"
9,COc1ccccc1CNC(=O)CS(=O)(=O)c1ccccc1,inactive
10,Cc1nn(C)cc1CNC(=O)Nc1ccc(Br)cc1Cl,"inconclusive: 13.1 µM [inhibitor, single point]"
11,OC1(c2ccccc2)Cc2cccc[n+]2C1c1ccccc1 (stereo not drawn),"inconclusive: 4.65 µM [inhibitor, partial curve]"
12,CCN(CC)CCCNc1nc(SC)nc2sc3c(c12)CCN(C)C3,"inconclusive: 8.28 µM [inhibitor, partial curve, poor fit]"
13,COC(=O)CCCCCCCC(=O)Nc1nnc(C(F)(F)F)s1,inactive
14,COc1ccc(/C=N/Nc2nc(-c3cccnc3)nc3ccccc23)cc1OC,active: 6.57 µM
15,CCOC(=O)N1CCC(NC(=O)C2CCN(C(=O)c3cc4oc(C)cc4n3Cc3c(F)cccc3Cl)CC2)CC1,"inconclusive: 2.08 µM [inhibitor, partial curve]"
16,Cc1nc(CCNC(=O)CC2C(=O)NCCN2Cc2ccoc2)nc2c1CCCC2 (stereo not drawn),inactive
17,COC(=O)CCCNC(=O)c1ccc2[nH]c(C)c(C)c2c1,inactive
18,COc1cccc(N2CC(C(=O)Nc3nnc(SCC(=O)N4CCOCC4)s3)CC2=O)c1 (stereo not drawn),"inconclusive: 10.4 µM [inhibitor, partial curve, poor fit]"
19,O=C(CNS(=O)(=O)c1ccc(Br)cc1)N1CCN(c2ccc(F)cc2)CC1,"inconclusive: 18.5 µM [inhibitor, single point]"
20,CN(C)S(=O)(=O)c1cc(C(=O)NCC2CCCO2)c(Cl)cc1Cl (stereo not drawn),"inconclusive: 14.7 µM [inhibitor, single point]"
21,O=S(=O)(c1ccc(Br)c2ccccc12)N1CCCC1,inactive
22,CCN(CC(=O)Nc1ccc(NC(C)=O)cc1)C(=O)CSCC(=O)Nc1ccc(C)cc1,inactive
